Several values for one entry are separate records, joined by “and”; a condition that tells them apart may be missing. Identical values can stand only once. The shares of active, inactive and inconclusive entries below differ from those in the screen. Where the call is inconclusive, the potency comes from a doubtful curve fit. More than one record can exist for a structure, and the calls need not agree. Activity calls are given as the source filed them. Calls come from the whole dose curve; as a rule, active = well fitted curve in the direction sought with a large enough effect in the repeat runs; inconclusive = weak or mixed curves; inactive = no such curve, though single readings can be large; an effect the other way counts as inactive or inconclusive.
What was measured:
[1] = Human pregnane X receptor (PXR) small molecule agonists, qHTS cell viability counter screen (AID 1346977); settings: PXR-Luc HepG2 viability, CellTiter-Fluor, 24 h; series mostly up to 92.4 µM; note: nearly all actives have a fitted effect of over 50% in size
Summary of the method: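 Cytotoxicity counter screen run in the same wells as the PXR luciferase assay, using PXR-Luc HepG2 cells in charcoal-stripped serum medium. Viability: CellTiter-Fluor fluorescence after 24hr compound treatment.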

[2] = target: Cytochrome P450 2C9 (Homo sapiens) (UniProt P11712); test: Cytochrome P450 Family 2 Subfamily C Member 9 (CYP2C9) small molecule antagonists: luciferase reporter qHTS assay (AID 1671198); settings: P450-Glo CYP2C9 enzyme assay, luciferin luminescence; series mostly up to 115 µM; note: nearly all actives have a fitted effect of over 50% in size
UniProt P11712, sequence (P11712 whole entry, looked up): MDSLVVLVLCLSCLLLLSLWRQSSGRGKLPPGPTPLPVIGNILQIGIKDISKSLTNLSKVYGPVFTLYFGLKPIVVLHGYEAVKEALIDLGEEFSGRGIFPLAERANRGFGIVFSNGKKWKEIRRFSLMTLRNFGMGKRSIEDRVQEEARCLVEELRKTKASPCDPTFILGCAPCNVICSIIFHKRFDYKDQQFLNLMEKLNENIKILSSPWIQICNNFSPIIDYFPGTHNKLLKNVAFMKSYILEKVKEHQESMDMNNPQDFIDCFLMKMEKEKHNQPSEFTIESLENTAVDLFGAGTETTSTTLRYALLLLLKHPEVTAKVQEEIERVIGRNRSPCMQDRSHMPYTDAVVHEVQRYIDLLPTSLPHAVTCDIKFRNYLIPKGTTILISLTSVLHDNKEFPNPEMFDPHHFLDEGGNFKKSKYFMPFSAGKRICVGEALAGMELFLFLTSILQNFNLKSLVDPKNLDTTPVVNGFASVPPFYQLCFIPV
Summary of the method: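 CYP2C9 activity was measured with a P450-Glo proluciferin substrate. Enzyme–substrate mix was held with compound for 10 min at room temperature, then NADPH regeneration solution was added for 1 h at 37C. Luciferin product was read as luminescence.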

[3] = target: Cytochrome P450 2C19 (Homo sapiens) (UniProt P33261); test: Cytochrome P450 Family 2 Subfamily C Member 19 (CYP2C19) small molecule antagonists: luciferase reporter qHTS assay (AID 1671197); settings: P450-Glo CYP2C19 enzyme, luciferin luminescence, 1 h; series mostly up to 115 µM; note: nearly all actives have a fitted effect of over 65% in size
UniProt P33261, sequence (P33261 whole entry, looked up): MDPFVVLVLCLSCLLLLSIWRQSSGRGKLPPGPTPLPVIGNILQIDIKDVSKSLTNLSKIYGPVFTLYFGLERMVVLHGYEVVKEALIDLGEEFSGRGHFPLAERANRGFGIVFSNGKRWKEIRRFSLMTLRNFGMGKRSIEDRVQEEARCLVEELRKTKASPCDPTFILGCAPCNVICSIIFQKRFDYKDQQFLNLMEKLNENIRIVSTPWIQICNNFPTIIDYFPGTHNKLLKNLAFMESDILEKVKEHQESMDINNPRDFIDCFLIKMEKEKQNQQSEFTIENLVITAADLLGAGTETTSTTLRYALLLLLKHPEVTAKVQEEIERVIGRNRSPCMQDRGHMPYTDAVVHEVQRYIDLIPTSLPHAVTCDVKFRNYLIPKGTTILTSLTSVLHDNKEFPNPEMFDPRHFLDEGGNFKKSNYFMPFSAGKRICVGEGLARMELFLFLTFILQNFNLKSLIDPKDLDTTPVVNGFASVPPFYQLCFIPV
Summary of the method: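 First, compounds are pinned into enzyme-substrate mix and held 10 min at room temperature. Second, NADPH regeneration solution is added and plates incubate 1 h at 37C. Third, detection reagent is added and luminescence read after 20 min.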

[4] = target: Cytochrome P450 1A2 (Homo sapiens) (UniProt P05177); test: Cytochrome P450 Family 1 Subfamily A Member 2 (CYP1A2) small molecule antagonists: luciferase reporter qHTS assay (AID 1671199); settings: P450-Glo CYP1A2 enzyme, luciferin luminescence, 1 h; series mostly up to 115 µM; note: nearly all actives have a fitted effect of over 50% in size
UniProt P05177, sequence (P05177 whole entry, looked up): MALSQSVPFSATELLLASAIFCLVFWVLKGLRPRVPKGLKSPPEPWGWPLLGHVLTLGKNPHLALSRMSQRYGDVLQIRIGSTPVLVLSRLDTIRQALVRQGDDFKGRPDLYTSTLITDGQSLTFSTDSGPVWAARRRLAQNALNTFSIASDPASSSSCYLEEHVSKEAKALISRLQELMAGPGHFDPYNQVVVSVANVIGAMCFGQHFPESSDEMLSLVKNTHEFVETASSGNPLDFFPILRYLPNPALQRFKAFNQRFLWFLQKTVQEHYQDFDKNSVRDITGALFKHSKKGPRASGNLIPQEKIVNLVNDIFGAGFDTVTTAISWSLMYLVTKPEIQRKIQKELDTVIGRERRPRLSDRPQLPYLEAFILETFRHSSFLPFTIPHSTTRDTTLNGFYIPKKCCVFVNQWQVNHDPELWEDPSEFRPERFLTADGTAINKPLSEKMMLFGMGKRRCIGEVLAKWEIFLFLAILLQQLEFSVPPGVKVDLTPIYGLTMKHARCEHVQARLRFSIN
Summary of the method: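 Human CYP1A2 activity measured with a P450-Glo proluciferin substrate; compounds in DMSO preincubated 10 min at room temperature with enzyme-substrate mix, then NADPH regeneration system added for 1 h. Luciferin detection reagent, 20 min, luminescence read.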

[5] = target: Cytochrome P450 2D6 (Homo sapiens) (UniProt P10635); test: Cytochrome P450 Family 2 Subfamily D Member 6 (CYP2D6) small molecule antagonists: luciferase reporter qHTS assay (AID 1671196); settings: P450-Glo CYP2D6 enzyme assay, luciferin luminescence, 1 h; series mostly up to 115 µM; note: nearly all actives have a fitted effect of over 50% in size
UniProt P10635, sequence (P10635 whole entry, looked up): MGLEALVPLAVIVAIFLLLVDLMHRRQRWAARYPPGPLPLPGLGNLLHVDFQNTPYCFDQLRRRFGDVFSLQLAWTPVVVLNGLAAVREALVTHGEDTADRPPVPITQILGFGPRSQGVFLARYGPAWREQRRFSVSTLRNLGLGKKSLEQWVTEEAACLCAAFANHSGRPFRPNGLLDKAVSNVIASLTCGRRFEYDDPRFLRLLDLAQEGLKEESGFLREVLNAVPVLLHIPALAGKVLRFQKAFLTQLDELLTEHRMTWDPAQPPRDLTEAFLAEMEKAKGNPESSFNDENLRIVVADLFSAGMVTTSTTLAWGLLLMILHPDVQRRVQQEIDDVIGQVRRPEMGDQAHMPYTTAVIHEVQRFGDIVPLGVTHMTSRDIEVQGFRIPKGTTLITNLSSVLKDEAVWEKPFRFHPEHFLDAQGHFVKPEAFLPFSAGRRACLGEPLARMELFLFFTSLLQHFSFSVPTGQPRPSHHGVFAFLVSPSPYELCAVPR
Summary of the method: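 CYP2D6 enzyme–substrate mix was held with compound for 10 min at room temperature, then NADPH regeneration solution was added and the reaction ran 1 h at room temperature. Luciferin product was detected by luminescence after 20 min with detection reagent.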

[6] = target: Nuclear receptor subfamily 1 group I member 2 (Rattus norvegicus) (UniProt Q9R1A7); test: Rat pregnane X receptor (rPXR) activation by small molecules, qHTS assay (AID 1346983); settings: rPXR luciferase reporter cells, One-Glo luminescence, 24 h; max activation: stronger effect = higher value; note: nearly all actives have a fitted effect of over 20% in size
UniProt Q9R1A7, sequence (Q9R1A7 whole entry, looked up): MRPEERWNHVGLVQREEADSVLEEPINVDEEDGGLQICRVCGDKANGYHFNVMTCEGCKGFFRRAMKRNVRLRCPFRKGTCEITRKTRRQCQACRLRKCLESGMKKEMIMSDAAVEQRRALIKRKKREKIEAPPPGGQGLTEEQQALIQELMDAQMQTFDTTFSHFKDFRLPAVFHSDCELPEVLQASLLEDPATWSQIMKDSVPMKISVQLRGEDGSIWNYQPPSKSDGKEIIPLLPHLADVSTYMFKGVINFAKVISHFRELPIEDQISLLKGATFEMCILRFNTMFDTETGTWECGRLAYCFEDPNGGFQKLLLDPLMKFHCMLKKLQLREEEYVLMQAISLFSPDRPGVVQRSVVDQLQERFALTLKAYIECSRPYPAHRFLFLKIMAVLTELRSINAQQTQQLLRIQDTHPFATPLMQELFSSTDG
Summary of the method: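 Cell-based rPXR luciferase reporter assay, 2,000 cells per well, rested 5hr at 37 C before compound addition in DMSO, then 24 hr at 37 C. One-Glo reagent was added and luminescence read after 30 min at room temperature.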

[7] = target: Nuclear receptor subfamily 1 group I member 2 (Homo sapiens) (UniProt O75469); test: CYP3A4 induction through human pregnane X receptor (PXR) by small molecules, qHTS assay (AID 1346984); settings: DPX-2 HepG2 PXR, CYP3A4-luciferin luminescence, 24 h; series mostly up to 46.1 µM; note: nearly all actives have a fitted effect of over 40% in size
Summary of the method: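 DPX-2 cells (HepG2 co-transfected with PXR and CYP3A4 promoter-luciferase) treated with compounds 24 h at 37C; luciferin-IPA CYP3A4 substrate 3uM final added for 3 h, then One-Glo; luminescence read. qHTS format.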

[8] = target: Nuclear receptor subfamily 1 group I member 2 (Homo sapiens) (UniProt O75469); test: Human pregnane X receptor (PXR) small molecule agonists, qHTS assay (AID 1346982); settings: PXR-Luc HepG2, CYP3A4 luciferase reporter, 24 h; series mostly up to 92.4 µM; note: nearly all actives have a fitted effect of over 35% in size
Summary of the method: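 PXR-Luc HepG2 cells (CYP3A4 promoter-driven luciferase) were seeded in medium with 5% charcoal-stripped FBS, left 5 hr at 37 C, then exposed to compounds in DMSO for 24 hr. Luminescence was read after ONE-Glo addition.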

[9] = target: Voltage-gated inwardly rectifying potassium channel KCNH2 (Homo sapiens) (UniProt Q12809); test: Human Ether-a-go-go-Related Gene (hERG) channel small molecule antagonists: fluorescence cell-based qHTS assay (AID 1671200); settings: hERG-U2OS cells, FluxOR thallium flux fluorescence; series mostly up to 76.8 µM; note: nearly all actives have a fitted effect of over 50% in size
UniProt Q12809, sequence (Q12809 whole entry, looked up): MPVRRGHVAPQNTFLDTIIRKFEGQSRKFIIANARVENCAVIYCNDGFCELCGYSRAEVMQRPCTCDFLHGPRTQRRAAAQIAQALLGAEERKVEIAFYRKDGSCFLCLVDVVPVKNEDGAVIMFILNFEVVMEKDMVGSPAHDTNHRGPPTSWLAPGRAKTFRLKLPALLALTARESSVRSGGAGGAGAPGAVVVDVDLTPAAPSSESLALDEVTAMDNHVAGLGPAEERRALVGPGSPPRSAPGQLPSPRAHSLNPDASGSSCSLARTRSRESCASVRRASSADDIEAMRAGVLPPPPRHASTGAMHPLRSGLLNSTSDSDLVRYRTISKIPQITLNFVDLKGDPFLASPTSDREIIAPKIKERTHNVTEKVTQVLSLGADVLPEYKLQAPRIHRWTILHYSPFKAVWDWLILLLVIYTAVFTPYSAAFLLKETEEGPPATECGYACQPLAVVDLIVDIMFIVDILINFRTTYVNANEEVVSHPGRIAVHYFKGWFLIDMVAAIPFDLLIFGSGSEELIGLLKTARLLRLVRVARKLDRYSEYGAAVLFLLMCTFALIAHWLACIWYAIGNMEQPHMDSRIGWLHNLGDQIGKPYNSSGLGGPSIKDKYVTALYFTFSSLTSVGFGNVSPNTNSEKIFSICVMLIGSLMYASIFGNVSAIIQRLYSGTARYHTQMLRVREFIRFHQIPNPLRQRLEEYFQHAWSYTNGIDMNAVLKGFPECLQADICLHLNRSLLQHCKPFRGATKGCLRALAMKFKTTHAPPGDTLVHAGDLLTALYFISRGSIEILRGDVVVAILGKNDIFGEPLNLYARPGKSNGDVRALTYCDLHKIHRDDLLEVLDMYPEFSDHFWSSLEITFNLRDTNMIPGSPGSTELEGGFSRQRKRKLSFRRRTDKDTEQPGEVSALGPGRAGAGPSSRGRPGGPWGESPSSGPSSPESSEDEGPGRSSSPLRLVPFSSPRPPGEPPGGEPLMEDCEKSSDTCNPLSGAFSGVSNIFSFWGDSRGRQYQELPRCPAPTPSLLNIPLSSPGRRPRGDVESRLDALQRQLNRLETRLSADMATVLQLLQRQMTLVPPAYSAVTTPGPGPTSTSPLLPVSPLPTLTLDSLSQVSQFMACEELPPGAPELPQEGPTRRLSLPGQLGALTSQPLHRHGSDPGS
Summary of the method: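 Fluorescence at 540 nm emission (480 nm excitation) was recorded kinetically for 2 min at 1-second intervals once the thallium-containing stimulus reached cells previously loaded with FluxOR II dye.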

[10] = target: Cytochrome P450 3A4 (Homo sapiens) (UniProt P08684); test: Cytochrome P450 Family 3 Subfamily A Member 4 (CYP3A4) small molecule antagonists: luciferase reporter qHTS assay (AID 1671201); settings: P450-Glo CYP3A4 enzyme, luciferin luminescence, 1 h; series mostly up to 115 µM; note: nearly all actives have a fitted effect of over 50% in size
UniProt P08684, sequence (P08684 whole entry, looked up): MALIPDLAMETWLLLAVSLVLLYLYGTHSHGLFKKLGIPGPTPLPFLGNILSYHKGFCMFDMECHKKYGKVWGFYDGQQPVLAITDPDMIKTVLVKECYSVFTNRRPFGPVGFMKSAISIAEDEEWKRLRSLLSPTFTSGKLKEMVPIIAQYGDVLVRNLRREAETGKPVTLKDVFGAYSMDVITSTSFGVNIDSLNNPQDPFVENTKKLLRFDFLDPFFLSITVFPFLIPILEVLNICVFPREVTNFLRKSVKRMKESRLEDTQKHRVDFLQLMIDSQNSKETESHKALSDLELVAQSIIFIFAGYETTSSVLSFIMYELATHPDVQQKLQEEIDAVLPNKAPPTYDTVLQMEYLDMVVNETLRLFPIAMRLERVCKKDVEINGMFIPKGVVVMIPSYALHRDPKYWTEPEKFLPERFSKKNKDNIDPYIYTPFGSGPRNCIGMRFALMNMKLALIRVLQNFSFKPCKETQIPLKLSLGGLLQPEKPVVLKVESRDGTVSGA
Summary of the method: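 qHTS, 1536-well. CYP3A4 + proluciferin substrate, cpd 10 min RT → NADPH regen 1 h RT → detection reagent 20 min → luminescence (RLU). Ketoconazole positive control.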
Potency is the fitted concentration of half-maximal effect; tags give direction and shape of the fitted curve.

**Q.** For CC1=C(CC=O)C(C)(C)CCC1, which Potency [1] is on record?
**A.** The Potency was inconclusive: 61.1 µM [rising, partial curve, poor fit].

**Q.** What about the Potency [2] of the same compound?
**A.** The Potency was inconclusive: 39.9 µM [inhibitor, partial curve].

**Q.** Which Potency [1] does the source give for N#CC1(c2ccc(F)cc2)CCC(=O)CC1 here?
**A.** Its Potency is “inactive”.

**Q.** And the Potency [3]?
**A.** The Potency was inconclusive: 17.4 µM [inhibitor, full curve].

**Q.** What about the Potency [2] of the same compound?
**A.** Its Potency is “inactive”.

**Q.** What about the Potency [4] of the same compound?
**A.** The Potency was “inactive”.

**Q.** For Cc1ncc[nH]1, which Potency [1] is on record?
**A.** Its Potency is “inactive”.

**Q.** And the Potency [5]?
**A.** Its Potency is “inactive”.

**Q.** And the Potency [2]?
**A.** Its Potency is inconclusive: 89.2 µM [inhibitor, single point].

**Q.** What about the Potency [4] of the same compound?
**A.** The Potency was “inactive”.

**Q.** Which Potency [1] does the source give for CCOC(=O)[C@H](CCc1ccccc1)N[C@@H](C)C(=O)N(CC(=O)O)C1Cc2ccccc2C1 here?
**A.** Its Potency is “inactive”.

**Q.** What about the Potency [3] of the same compound?
**A.** The Potency was active: 6.92 µM.

**Q.** What about the Potency [4] of the same compound?
**A.** Its Potency is inconclusive: 27.5 µM [inhibitor, partial curve].

**Q.** Which results are given for COC(=O)Nc1nc2ccc(C(=O)c3ccccc3)cc2[nH]1?
**A.** Potency [1]: inactive; Potency [6]: inconclusive: 0.224 µM [activator, full curve, poor fit]; Potency [7]: inconclusive: 3.55 µM [activator, full curve, poor fit]; Potency [2]: inactive; Potency [4]: active: 12.9 µM

**Q.** Which Potency [1] does the source give for Nc1ccc(O)c(N)c1 here?
**A.** The Potency was inconclusive: 54.5 µM [cytotoxic].

**Q.** What about the Potency [8] of the same compound?
**A.** Its Potency is “inactive”.

**Q.** And the Potency [2]?
**A.** Its Potency is active: 35.3 µM and active: 71 µM.

**Q.** What about the Potency [4] of the same compound?
**A.** Its Potency is inconclusive: 39.7 µM [inhibitor, partial curve] and inconclusive: 39.9 µM [inhibitor, partial curve].

**Q.** And the Potency [9]?
**A.** The Potency was inconclusive: 24.5 µM [inhibitor, single point].

**Q.** And the Potency [10]?
**A.** The Potency was inconclusive: 19.9 µM [inhibitor, full curve].

**Q.** Which Potency [1] does the source give for CCCCCCCCCCCCCCCC here?
**A.** The Potency was “inactive”.

**Q.** And the Potency [5]?
**A.** The Potency was “inactive”.

**Q.** Which Potency [1] does the source give for CC(C)OC(=O)c1cc(C(=O)OC(C)C)cc([N+](=O)[O-])c1 here?
**A.** Its Potency is inconclusive: 1.98 µM [rising, partial curve, poor fit].

**Q.** What about the Potency [2] of the same compound?
**A.** Its Potency is active: 0.84 µM.

**Q.** And the Potency [4]?
**A.** Its Potency is active: 2.33 µM.

**Q.** And the Potency [9]?
**A.** The Potency was inconclusive: 35.5 µM [inhibitor].

**Q.** With CCCCOc1ccc(OCCCN2CCOCC2)cc1 as the compound, how does the Potency [1] read?
**A.** The Potency was inconclusive: 33.5 µM [cytotoxic, single point].

**Q.** And the Potency [8]?
**A.** The Potency was active: 21.1 µM.

**Q.** What about the Potency [2] of the same compound?
**A.** Its Potency is inconclusive: 34.7 µM [inhibitor, partial curve, poor fit].

**Q.** And the Potency [9]?
**A.** The Potency was inconclusive: 23.9 µM [inhibitor, partial curve].

**Q.** For COc1cc(O)c(C(=O)c2ccccc2)cc1S(=O)(=O)O, which Potency [1] is on record?
**A.** Its Potency is “inactive”.

**Q.** What about the Potency [5] of the same compound?
**A.** Its Potency is inconclusive: 50.9 µM [inhibitor, partial curve] and inconclusive: 35.2 µM [inhibitor, partial curve].

**Q.** What about the Potency [3] of the same compound?
**A.** The Potency was inconclusive: 40.5 µM [inhibitor, partial curve, poor fit].

**Q.** And the Potency [2]?
**A.** Its Potency is inconclusive: 90.6 µM [inhibitor] and inconclusive: 55.8 µM [inhibitor, partial curve, poor fit].

**Q.** For C=Cc1ccc(S(=O)(=O)O)cc1, which Potency [1] is on record?
**A.** The Potency was “inactive”.

**Q.** What about the Potency [3] of the same compound?
**A.** The Potency was “inactive”.

**Q.** And the Potency [2]?
**A.** Its Potency is inconclusive: 71 µM [inhibitor, single point].

**Q.** What about the Potency [4] of the same compound?
**A.** The Potency was active: 71 µM.

**Q.** What about the Potency [10] of the same compound?
**A.** Its Potency is “inactive”.

**Q.** For CCCCN(CCN(CCCC)C(=O)N1CCOCC1)C(=O)N1CCOCC1, which Potency [1] is on record?
**A.** The Potency was inconclusive: 29.8 µM [cytotoxic, single point].

**Q.** And the Potency [8]?
**A.** The Potency was inconclusive: 21.1 µM [activator, partial curve].

**Q.** What about the Potency [4] of the same compound?
**A.** The Potency was “inactive”.

**Q.** Which results are given for CCCCCCCCOc1ccc(C(=O)O)cc1?
**A.** Potency [1]: inconclusive: 67.8 µM [cytotoxic, partial curve, poor fit]; Potency [2]: inconclusive: 55.8 µM [inhibitor, partial curve]

**Q.** Which Potency [1] does the source give for Cc1cccc(N(C)C(=S)Oc2ccc3c(c2)CCC3)c1 here?
**A.** The Potency was inconclusive: 33.5 µM [cytotoxic, single point].

**Q.** What about the Potency [5] of the same compound?
**A.** Its Potency is “inactive”.

**Q.** What about the Potency [2] of the same compound?
**A.** The Potency was inconclusive: 17.4 µM [inhibitor, partial curve].

**Q.** With CC(COC(=O)c1ccccc1)OC(=O)c1ccccc1 (stereo not drawn) as the compound, how does the Potency [1] read?
**A.** Its Potency is “inactive”.

**Q.** What about the Potency [5] of the same compound?
**A.** Its Potency is inconclusive: 79.6 µM [inhibitor, partial curve, poor fit].

**Q.** And the Potency [4]?
**A.** Its Potency is active: 5.64 µM.

**Q.** What does the source list for CN1C(=O)OC(C)(C)C1=O?
**A.** Potency [1]: inactive; Potency [5]: inactive; Potency [4]: inconclusive: 35 µM [inhibitor, partial curve]

**Q.** Which Potency [1] does the source give for Nc1ccc(N)c(Cl)c1 here?
**A.** The Potency was inconclusive: 50.1 µM [cytotoxic, single point] and inconclusive: 68.6 µM [cytotoxic].

**Q.** What about the Potency [4] of the same compound?
**A.** Its Potency is active: 39.8 µM and active: 35.6 µM.

**Q.** With Cc1cccc(C(=O)O)c1 as the compound, how does the Potency [1] read?
**A.** Its Potency is active: 14.1 µM and inconclusive: 68.6 µM [cytotoxic, single point].

**Q.** And the Potency [3]?
**A.** Its Potency is inconclusive: 78.7 µM [inhibitor, single point].

**Q.** And the Potency [2]?
**A.** The Potency was inconclusive: 88.3 µM [inhibitor, partial curve, poor fit].

**Q.** What about the Potency [4] of the same compound?
**A.** Its Potency is “inactive”.

Reference: PubChem BioAssay (Tox21)
